Data on three compounds can be found in patent US11542275B2, “Substituted imidazolidin-2-one derivatives as PRMT5 inhibitors” (Aurigene Discovery Technologies Limited, priority 2018, dated 2023).

The target of the assay is PRMT5/MEP50 Complex (Homo sapiens (Human), UniProt O14744). Kind of assay: PRMT5 inhibition based on TR-FRET assay. The format is biochemical. Particulars: 32 nM PRMT5:MEP50 complex, 50 nM Histone-H4 peptide, 1 μM SAM, 90 minutes at room temperature. The source says:
Protein arginine methyltransferase 5 (PRMT5) is a type II arginine methyltransferase that catalyze mono- and symmetric demethylation on arginine residues of histone or non-histone proteins in presence of S-adenosylmethionine (AdoMet or SAM) a cofactor responsible for donating the methyl group. PRMT5 is reported to be overexpressed in several human cancers. To identify compounds that inhibit the PRMT5 and decrease its activity, a TR-FRET based assay has been established. Time-resolved fluorescence resonance energy transfer (TR-FRET) HTS assays are homogeneous proximity assays where the interaction of two dye-labeled binding partners is detected by the energy transfer between a donor and an acceptor dye, and the subsequent light emission by the acceptor dye. PRMT5 catalyzes Histone H4 peptide which is biotin tagged to the Lysine amino acid at carboxyl end, in presence of S-adenosyl-1-methionine (SAM) to methylate the peptide. The antibody specific to mono methylated H4 peptide (H4R3) with Ig conjugate binds to the methylated peptide, indirectly binding to the Europium lanthanide. SureLight Allophycocyanin-Streptavidin binds to the biotin tag of the peptide, therefore accepting the energy transferred from the Europium lanthanide. This energy transfer between Europium to SureLight Allophycocyanin is a direct measure of the activity/inhibition of the PRMT5 enzyme.
Assay buffer: 20 mM BICINE (pH 7.6), 25 mM NaCl, 2 mM DTT, 0.01% Tween-20 and 0.01% BSA.
The compound dilutions were prepared as 7.5% DMSO stock solutions in assay buffer. To 2 μL (7.5×) of test compound, 5 μL of PRMT5 enzyme prepared in assay buffer (Final concentration of 32 nM in 15 μL reaction volume) was added and allowed for 30 minutes pre-incubation time in a white polystyrene 384-well plate at room temperature. […] The plates were then read on Victor-3 with Excitation at 340 nm and Emissions collected at 615 and 665 nm in TR-FRET protocol. […]
For orientation: In TR-FRET formats the signal depends on donor and acceptor labels being close together.

What is called IC50 is the concentration that gives 50% inhibition. Higher therefore signals weaker potency in that assay.

The compound `O=C1N(Cc2ccc(-n3ccccc3=O)cn2)CCN1C[C@H](O)CN1CCc2ccccc2C1` [Compound 101, (R)-6′-((3-(3-(3,4-dihydroisoquinolin-2(1H)-yl)-2-hydroxypropyl)-2-oxoimidazolidin-1-yl)methyl)-2H-[1,3′-bipyridin]-2-one] registered an IC50 of 68 nM. This counts as double-digit nanomolar. In the case of `O=C(c1ncc(-c2ccc(CN3CCN(C[C@H](O)CN4CCc5ccccc5C4)C3=O)nc2)cn1)N1CCCC1` [Compound 102, (R)-1-(3-(3,4-dihydroisoquinolin-2(1H)-yl)-2-hydroxypropyl)-3-((5-(2-(pyrrolidine-1-carbonyl)pyrimidin-5-yl)pyridin-2-yl)methyl)imidazolidin-2-one] it was 46 nM. In the case of `CO[C@H](CN1CCc2ccccc2C1)CN1CCN(Cc2ccc(C3CCOCC3)cn2)C1=O` [Compound 104, (R)-1-(3-(3,4-dihydroisoquinolin-2(1H)-yl)-2-methoxypropyl)-3-((5-(tetrahydro-2H-pyran-4-yl)pyridin-2-yl)methyl)imidazolidin-2-one] it was 444 nM.
